# Hit rate of the full screen: of about 380,000 compounds, about 170 (0.045%) were called active. Calls come from the whole dose curve; as a rule, active = well fitted inhibition curve with a large enough effect; inconclusive = small, poorly fitted or top-dose-only effect; inactive = no such curve, though single readings can be large or run the other way. Only a part is listed here, and it is no random draw.
# Target: Phosphoglycerate kinase, glycosomal (Trypanosoma brucei brucei) (UniProt P07378)
# Assay: qHTS Assay to Find Inhibitors of Phosphoglycerate Kinase; note: nearly all actives have a fitted effect of over 60% in size
# Details: PGK/GAPDH coupled, Kinase-Glo luminescence, 60 min; series mostly up to 57.5 µM; activity change, negative = inhibition: at the top concentration
# Description: Several species of the Trypanosomatidae family of parasitic protozoans cause a spectrum of diseases throughout the tropical and subtropical world. Sleeping sickness, caused by two subspecies of Trypanosoma brucei, is endemic to areas of sub-Saharan Africa, while Chagas disease, a manifestation of Trypanosoma cruzi infection, is prevalent throughout Central and South America. In addition, many species of Leishmania are responsible for a range of cutaneous and visceral diseases, causing ulcers, destructive lesions and kalaazar, a lethal infection of the viscera. Collectively, these organisms infect 30 million people worldwide (~500 million live in endemic areas), and account for ~130,000 deaths annually. Given their debilitating and prevalent nature, trypanosomatid parasites impose a heavy medical, economic and social burden on entire populations, primarily in the developing world. The problem is further exacerbated by the fact that existing treatments have progressed little in the past 50 years, and current drugs show high toxicity and poor efficacy. […] Blood-stream stages of T. brucei are entirely dependent on glycolysis as a source of ATP, and the tricarboxylic acid cycle and oxidative phosphorylation are both repressed. Glycolysis in axenically cultured T. cruzi, representing the intracellular pathogenic stage, is also essential for these parasites. […] Previous studies have shown that the glycolytic enzyme, phosphoglycerate kinase (PGK), is a viable target for drugs to kill these parasites. […] NIH Molecular Libraries Probe Production Network [MLPCN] NIH Chemical Genomics Center [NCGC] MLPCN Grant: R03 MH093212 PI Name: Malcolm Walkinshaw, University of Edinburgh
# 3ul of substrate/PGK buffer (columns 1,2,5-48) are dispensed into Greiner white solid bottom 1536-well assay plates; columns 3-4 receive only TEA buffer as 0x PGK controls. Compounds are then transferred via Kalypsys pin tool equipped with 1536-pin array (10nl slotted pins, V&P Scientific, San Diego, CA). Following addition of compound, 1ul of GAPDH (100nM final concentration, all columns) is added to initiate the reaction (this upstream coupling enzyme is necessary for in-well production of PGK substrate, 1,3-bisphosphoglycerate (1,3-BPG), which is unstable and not commercially available). The plates are then incubated at room temperature for 60 minutes. Kinase-Glo Plus reagent is added (2ul) and plates incubated for 10 minutes, before being transferred to a ViewLux high-throughput CCD imager (PerkinElmer) wherein single end-point measurements of luminescence are acquired using a clear filter. All reagents are diluted in an assay buffer consisting of 100mM TEA (pH 7.6), 5mM MgCl2 and 0.01% Tween-20.
# Potency is the fitted concentration of half-maximal effect.
SMILES,outcome,Potency,"activity change, negative = inhibition"
C[N+]1(C)C2CC[C@H]1CC(OC(=O)C(CO)c1ccccc1)C2 (some centres undefined),inactive,,
N/C(=N\N=C/c1ccc(-c2ccc(O)c(C(=O)O)c2)o1)N[N+](=O)[O-],,active: 10 µM,
C=Cc1ccc(Cn2c(C)c(CNCCc3cc(OC)ccc3OC)c(C(=O)O)c2C)cc1,,,inactive: 19.7%
COc1ccc(N2C(=O)NC(=O)/C(=C\c3ccc([N+](=O)[O-])s3)C2=O)cc1,,,inactive: -14.9%
CN(C)[C@@H]1C(=O)C(C(N)=O)=C(O)[C@@]2(O)C(=O)C3=C(O)c4c(O)cccc4[C@@](C)(O)C3[C@H](O)C12 (some centres undefined),,inactive,
CCOc1ccc(C2SCC(=O)Nc3c2c(C)nn3C2CCOC(C)(C)C2)cc1 (centres undefined),,,inactive: 19.1%
C[N+]1(C)C2CCC1CC(OC(=O)C(CO)c1ccccc1)C2 (centres undefined),,,inactive: -7.21%
CN(C)c1ccc(/C=C/c2cc[n+](C)c3ccccc23)cc1,,,inactive: -15.2%
COc1ccc(OC)c(-n2c(O)c(C=Nc3c(C)n(C)n(-c4ccccc4)c3=O)c(=O)[nH]c2=S)c1,,,inactive: 23.4%
COc1ccc(N2C(=O)/C(=C/c3ccco3)C(=O)NC2=S)cc1,,active: 12.6 µM,
CCC(C)/C=C(C)/C=C/C1=CC2=C(Cl)C(=O)C(C)(OC(C)=O)C(=O)C2=CO1 (centres undefined),,,inactive: -6.36%
COc1ccc(OC)c(N2C(=O)/C(=C/c3ccco3)C(=O)NC2=S)c1,,active: 3.55 µM,
COc1cc(/C=N/NC(=O)CN2CCCCC2)ccc1OCc1ccccc1,,,inactive: 20.5%
O=C(O)c1cccc2c1NC(C(=O)O)C1CC(Sc3ccccc3[N+](=O)[O-])C(Cl)C21 (centres undefined),,active: 11.2 µM,
O=C1NC(=O)N(c2ccccc2)C(=O)/C1=C\c1ccc([N+](=O)[O-])s1,,,inactive: -28.5%
C[N+]1(C)[C@@H]2CC[C@H]1CC(OC(=O)C(CO)c1ccccc1)C2 (some centres undefined),inactive,,
Cc1ccc(N2C(=O)NC(=O)/C(=C/c3ccoc3)C2=O)cc1,,active: 11.2 µM,
Cc1ccc(N2C(=O)NC(=O)/C(=C\c3ccoc3)C2=O)cc1,,,inactive: -14.6%
CN(C)C1C(=O)C(C(N)=O)=C(O)C2(O)C(=O)C3=C(O)c4c(O)cccc4C(C)(O)C3C(O)C12 (centres undefined),inactive,,

# Source: PubChem BioAssay AID602233 (National Center for Advancing Translational Sciences (NCATS), 2012)
